# Measured values as given in the supplement of paper PMC8728848.
# This is one part of the list.
# How the values were obtained:
# Test in all cases: glycan array binding signal (z-score within array); higher = stronger binding
# Details in all cases: glycan notation: IUPAC condensed, linker removed
# [1] = biological target: GlcNAc(b1-3)Gal(b1-4)GlcNAc(b1-3)Gal(b1-4)GlcNAc(b1-3)Gal(b1-4)GlcNAc(b1-3)Gal(b1-4)GlcNAc(b1-2)[GlcNAc(b1-3)Gal(b1-4)GlcNAc(b1-3)Gal(b1-4)GlcNAc(b1-3)Gal(b1-4)GlcNAc(b1-3)Gal(b1-4)GlcNAc(b1-6)]Man(a1-6)[GlcNAc(b1-3)Gal(b1-4)GlcNAc(b1-3)Gal(b1-4)GlcNAc(b1-3)Gal(b1-4)GlcNAc(b1-3)Gal(b1-4)GlcNAc(b1-2)Man(a1-3)]Man(b1-4)GlcNAc(b1-4)[Fuc(a1-6)]GlcNAc
# Summary of the method: (§1)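 Glycan array binding is given as a within-array Z-score, which can be read as non-binding when negative. The arrays, 3228 of them, came from the Consortium for Functional Glycomics database and were retained only where the protein sequence was available. Z-scores were averaged across arrays of the same protein sequence at different concentrations or buffers and across linkers.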
# [2] = biological target: GlcNAc(b1-3)Gal(b1-4)GlcNAc(b1-3)Gal(b1-4)GlcNAc(b1-3)GalNAc
# Summary of the method: as §1
# [3] = biological target: GlcNAc(b1-3)Gal(b1-4)GlcNAc(b1-3)GalNAc
# Summary of the method: as §1
# [4] = biological target: GlcNAc(b1-3)Gal(b1-4)GlcNAc(b1-3)[GlcNAc(b1-3)Gal(b1-4)GlcNAc(b1-3)]GalNAc
# Summary of the method: as §1
# [5] = biological target: GlcNAc(b1-3)Gal(b1-4)GlcNAc(b1-6)[Gal(b1-3)]GalNAc
# Summary of the method: as §1
# [6] = biological target: GlcNAc(b1-3)Gal(b1-4)GlcNAc(b1-6)[GlcNAc(b1-3)Gal(b1-3)]GalNAc
# Summary of the method: as §1
# [7] = biological target: GlcNAc(b1-3)Gal(b1-4)GlcNAc(b1-6)[GlcNAc(b1-3)]Gal(b1-4)GlcNAc
# Summary of the method: as §1
# GlcNAc(b1-3)GalNAc = biological target: GlcNAc(b1-3)GalNAc
# Summary of the method: as §1
# GlcNAc(b1-3)Man = biological target: GlcNAc(b1-3)Man
# Summary of the method: as §1
# [8] = biological target: GlcNAc(b1-3)[GlcNAc(b1-4)][GlcNAc(b1-6)]GlcNAc
# Summary of the method: as §1
# [9] = biological target: GlcNAc(b1-3)[GlcNAc(b1-6)]Gal(b1-4)GlcNAc
# Summary of the method: as §1
# [10] = biological target: GlcNAc(b1-3)[GlcNAc(b1-6)]GalNAc
# Summary of the method: as §1
# [11] = biological target: GlcNAc(b1-4)Gal(b1-4)GlcNAc
# Summary of the method: as §1
# GlcNAc(b1-4)GlcNAc = biological target: GlcNAc(b1-4)GlcNAc
# Summary of the method: as §1
# [12] = biological target: GlcNAc(b1-4)GlcNAc(b1-4)GlcNAc
# Summary of the method: as §1
# [13] = biological target: GlcNAc(b1-4)GlcNAc(b1-4)GlcNAc(b1-4)GlcNAc(b1-4)GlcNAc
# Summary of the method: as §1
# [14] = biological target: GlcNAc(b1-4)GlcNAc(b1-4)GlcNAc(b1-4)GlcNAc(b1-4)GlcNAc(b1-4)GlcNAc
# Summary of the method: as §1
# [15] = biological target: GlcNAc(b1-4)[GlcNAc(b1-6)]GalNAc
# Summary of the method: as §1
# [16] = biological target: GlcNAc(b1-6)Gal(b1-4)GlcNAc
# Summary of the method: as §1
# GlcNAc(b1-6)GalNAc = biological target: GlcNAc(b1-6)GalNAc
# Summary of the method: as §1
# [17] = biological target: GlcNAc6S(b1-3)Gal(b1-4)GlcNAc
# Summary of the method: as §1
# Kdn(a2-3)Gal(b1-3)GalNAc = biological target: Kdn(a2-3)Gal(b1-3)GalNAc
# Summary of the method: as §1
# Kdn(a2-3)Gal(b1-3)GlcNAc = biological target: Kdn(a2-3)Gal(b1-3)GlcNAc
# Summary of the method: as §1
# Kdn(a2-3)Gal(b1-4)Glc = biological target: Kdn(a2-3)Gal(b1-4)Glc
# Summary of the method: as §1
# Kdn(a2-3)Gal(b1-4)GlcNAc = biological target: Kdn(a2-3)Gal(b1-4)GlcNAc
# Summary of the method: as §1
# [18] = biological target: Kdn(a2-3)Gal(b1-4)[Fuc(a1-3)]GlcNAc
# Summary of the method: as §1
# Kdn(a2-6)Gal(b1-4)GlcNAc = biological target: Kdn(a2-6)Gal(b1-4)GlcNAc
# Summary of the method: as §1
# [19] = biological target: Man(a1-2)Man(a1-2)Man(a1-3)Man
# Summary of the method: as §1
# [20] = biological target: Man(a1-2)Man(a1-2)Man(a1-6)[Man(a1-3)]Man
# Summary of the method: as §1
# Man(a1-2)Man(a1-3)Man = biological target: Man(a1-2)Man(a1-3)Man
# Summary of the method: as §1
# [21] = biological target: Man(a1-2)Man(a1-3)[Man(a1-2)Man(a1-6)]Man
# Summary of the method: as §1
# [22] = biological target: Man(a1-2)Man(a1-3)[Man(a1-2)Man(a1-6)]Man(a1-6)[Man(a1-2)Man(a1-2)Man(a1-3)]Man
# Summary of the method: as §1
# [23] = biological target: Man(a1-2)Man(a1-3)[Man(a1-2)Man(a1-6)]Man(a1-6)[Man(a1-2)Man(a1-2)Man(a1-3)]Man(b1-4)GlcNAc(b1-4)GlcNAc
# Summary of the method: as §1
# [24] = biological target: Man(a1-2)Man(a1-3)[Man(a1-6)]Man(a1-6)[Man(a1-2)Man(a1-3)]Man(b1-4)GlcNAc(b1-4)GlcNAc
# Summary of the method: as §1
# [25] = biological target: Man(a1-2)Man(a1-6)[Man(a1-3)]Man(a1-6)[Man(a1-2)Man(a1-2)Man(a1-3)]Man
# Summary of the method: as §1
# [26] = biological target: Man(a1-2)Man(a1-6)[Man(a1-3)]Man(a1-6)[Man(a1-2)Man(a1-2)Man(a1-3)]Man(b1-4)GlcNAc(b1-4)GlcNAc
# Summary of the method: as §1
# Man(a1-3)[Man(a1-6)]Man = biological target: Man(a1-3)[Man(a1-6)]Man
# Summary of the method: as §1
# [27] = biological target: Man(a1-3)[Man(a1-6)]Man(a1-6)[Man(a1-2)Man(a1-3)]Man(b1-4)GlcNAc(b1-4)GlcNAc
# Summary of the method: as §1
# [28] = biological target: Man(a1-3)[Man(a1-6)]Man(a1-6)[Man(a1-3)]Man
# Summary of the method: as §1
# [29] = biological target: Man(a1-3)[Man(a1-6)]Man(a1-6)[Man(a1-3)]Man(b1-4)GlcNAc(b1-4)GlcNAc
# Summary of the method: as §1
# [30] = biological target: Man(a1-3)[Man(a1-6)]Man(b1-4)GlcNAc(b1-4)GlcNAc
# Summary of the method: as §1
# [31] = biological target: Man(a1-3)[Man(a1-6)]Man(b1-4)GlcNAc(b1-4)[Fuc(a1-6)]GlcNAc
# Summary of the method: as §1
# Man(a1-6)Man = biological target: Man(a1-6)Man
# Summary of the method: as §1
# Man(b1-4)GlcNAc = biological target: Man(b1-4)GlcNAc
# Summary of the method: as §1
# MurNAc(b1-4)GlcNAc = biological target: MurNAc(b1-4)GlcNAc
# Summary of the method: as §1
binder,measurement,setting,value
"SGC, Q9M345 (protein) QNLNFTYNGFHPPLTDISLQGLATVTPNGLLKLTNTSVQKTGHAFCTERIRFKDSQNGNVSSFSTTFVFAIHSQIPTLSGHGIAFVVAPTLGLPFALPSQYIGLFNISNNGNDTNHIFAVEFDTIQSSEFGDPNDNHVGIDLNGLRSANYSTAGYRDDHDKFQNLSLISRKRIQVWIDYDNRSHRIDVTVAPFDSDKPRKPLVSYVRDLSSILLEDMYVGFSSATGSVLSEHFLVGWSFRLNGEAPMLSLSKLPKLPRFEPRRIS",glycan array binding signal (z-score),[1],-0.162
same,glycan array binding signal (z-score),[2],-0.364
same,glycan array binding signal (z-score),[3],-0.322
same,glycan array binding signal (z-score),[4],-0.353
same,glycan array binding signal (z-score),[5],-0.31
same,glycan array binding signal (z-score),[6],-0.355
same,glycan array binding signal (z-score),[7],-0.358
same,glycan array binding signal (z-score),GlcNAc(b1-3)GalNAc,-0.395
same,glycan array binding signal (z-score),GlcNAc(b1-3)Man,-0.422
same,glycan array binding signal (z-score),[8],-0.336
same,glycan array binding signal (z-score),[9],-0.352
same,glycan array binding signal (z-score),[10],-0.342
same,glycan array binding signal (z-score),[11],-0.349
same,glycan array binding signal (z-score),GlcNAc(b1-4)GlcNAc,-0.333
same,glycan array binding signal (z-score),[12],-0.354
same,glycan array binding signal (z-score),[13],-0.3
same,glycan array binding signal (z-score),[14],-0.345
same,glycan array binding signal (z-score),[15],-0.327
same,glycan array binding signal (z-score),[16],1.55
same,glycan array binding signal (z-score),GlcNAc(b1-6)GalNAc,-0.316
same,glycan array binding signal (z-score),[17],-0.273
same,glycan array binding signal (z-score),Kdn(a2-3)Gal(b1-3)GalNAc,-0.327
same,glycan array binding signal (z-score),Kdn(a2-3)Gal(b1-3)GlcNAc,-0.394
same,glycan array binding signal (z-score),Kdn(a2-3)Gal(b1-4)Glc,-0.361
same,glycan array binding signal (z-score),Kdn(a2-3)Gal(b1-4)GlcNAc,-0.334
same,glycan array binding signal (z-score),[18],-0.336
same,glycan array binding signal (z-score),Kdn(a2-6)Gal(b1-4)GlcNAc,-0.393
same,glycan array binding signal (z-score),[19],-0.36
same,glycan array binding signal (z-score),[20],-0.361
same,glycan array binding signal (z-score),Man(a1-2)Man(a1-3)Man,-0.388
same,glycan array binding signal (z-score),[21],-0.373
same,glycan array binding signal (z-score),[22],-0.354
same,glycan array binding signal (z-score),[23],-0.229
same,glycan array binding signal (z-score),[24],0.362
same,glycan array binding signal (z-score),[25],-0.391
same,glycan array binding signal (z-score),[26],-0.346
same,glycan array binding signal (z-score),Man(a1-3)[Man(a1-6)]Man,-0.303
same,glycan array binding signal (z-score),[27],0.245
same,glycan array binding signal (z-score),[28],-0.395
same,glycan array binding signal (z-score),[29],-0.293
same,glycan array binding signal (z-score),[30],-0.363
same,glycan array binding signal (z-score),[31],-0.336
same,glycan array binding signal (z-score),Man(a1-6)Man,-0.361
same,glycan array binding signal (z-score),Man(b1-4)GlcNAc,-0.359
same,glycan array binding signal (z-score),MurNAc(b1-4)GlcNAc,-0.38
